The source of these data is PubChem BioAssay AID1240 (Sanford-Burnham Center for Chemical Genomics, 2008).

SMILES strings stand for the structures. Among all 50,000 compounds or so, about 800 (1.6%) showed an effect of 50% or more. This is one part of the list.

The experiment addresses Bcl-2-like protein 10 (Homo sapiens) (UniProt Q9HD36). Briefly: Phenotype converters, Bcl-B/TR3 peptide binding displacement, primary biochemical FP (AID 1240).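 Note: 0% = Bcl-B with tracer peptide and DMSO and 100% = tracer peptide lacking Bcl-B.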 The note with it: GST-Bcl-B / FITC-TR3 peptide fluorescence polarization; stronger effect = higher value; compound at 3.75 mg/L. In general terms: Fluorescence polarisation rises when a labelled molecule tumbles more slowly, as on binding a larger partner.
Sequence of UniProt Q9HD36 (Q9HD36 whole entry, looked up): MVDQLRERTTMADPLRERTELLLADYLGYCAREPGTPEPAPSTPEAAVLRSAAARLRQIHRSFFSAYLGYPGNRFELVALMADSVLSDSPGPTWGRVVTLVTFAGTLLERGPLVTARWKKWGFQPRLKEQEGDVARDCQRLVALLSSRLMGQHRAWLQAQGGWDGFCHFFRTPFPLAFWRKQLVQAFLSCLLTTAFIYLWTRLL
With `COc1ccc(S(=O)(=O)n2cnc3ccccc32)cc1[N+](=O)[O-]`, the displacement is -6.7%. As for `O=C(NCCNc1cc(Cl)ccc1[N+](=O)[O-])c1ccccc1Cl`, the figure is 7.6%. Next, `CC(=O)Nc1ccc(S(=O)(=O)NC(C)C2C3CC4CC(C3)CC2C4)cc1` (configuration not stated): 0.3%; `CCC1(C)CC(CC(=O)O)(c2ccccc2OC)CCO1` (configuration not stated): -96.8%. As for `COc1cccc(NC(=O)CN(c2ccc(C(C)C)cc2)S(=O)(=O)c2ccccc2)c1`, the figure is 7.1%; as for `O=S(=O)(c1cccc2nsnc12)N1CCN(C(c2ccccc2)c2ccccc2)CC1`, 13.5%; as for `O=C(Nc1ccccc1C(=O)N=Nc1c(O)[nH]c2ccc(Br)cc12)c1ccccc1`, -10.8%. Take `Clc1ccc(-c2nc(N3CCOCC3)c3ccccc3n2)cc1Cl`: the displacement is 16.9%. Next, `O=C(Oc1c(C(=O)Nc2ccc(Cl)c([N+](=O)[O-])c2)ccc2ccccc12)c1ccccc1`: 1.9%.

For the compound `CCCc1cc2c(-c3ccccc3)cc(=O)oc2cc1OC(C)C(=O)OC` (configuration not stated), the displacement was determined as 9.2%. For the compound `CCOC(=O)c1c(-c2ccc(C)cc2)csc1NC(=O)C1CC1`, the displacement was 11.2%. As for `Cc1cccc(C)c1OCC(O)CN1CC(C)OC(C)C1` (configuration not stated), the figure is 12.7%.

Consider `COc1ccccc1/C=N/Nc1nnc(-c2ccccc2)c(-c2ccccc2)n1`, for which the displacement stood at 6.3%. For the compound `Cc1c(C(=O)N2CCN(c3cccc(Cl)c3)CC2)cccc1[N+](=O)[O-]`, the displacement is -0.3%. As for `Cc1ccccc1OCC(=O)N1CCCc2ccccc21`, the figure is -4.9%; as for `Cc1ccc(C(=O)N/C(=C\c2cccc(Oc3ccccc3)c2)C(=O)NCCCn2ccnc2)cc1`, 6.9%; as for `CCCN(CCC)c1ccc(/C=C2\SC(=S)NC2=O)cc1`, 0.3%. As to `CCOC(=O)c1ccc(NC(=O)CN(c2ccc(OCC)cc2)S(=O)(=O)c2ccc(SC)cc2)cc1`, the displacement stood at 6.6%. Next, `COc1ccc(-c2cc(O)cc(O)c2)cc1`: -2.3%; `COc1ccc(NC(=O)CN(c2ccc(C)c(Cl)c2)S(C)(=O)=O)cc1OC`: 18.5%; `O=S(=O)(c1ccccc1C(O)(c1ccccc1)c1ccccc1)c1ccccc1C(O)(c1ccccc1)c1ccccc1`: 8.9%. On to `COc1ccc(CNC(=O)CN(c2ccc(Br)cc2)S(=O)(=O)c2ccccc2)cc1`, for which the displacement amounted to 8.2%. Next, `C=CC(=O)NC(NC(=O)C=C)c1ccc(F)cc1`: 15.5%; `CC(C)CCNC(=O)c1cccc(I)c1`: 1.1%; `Cc1ccc(N2CCSC2C(N)=O)cc1` (configuration not stated): 3.7%. Turning to `Cc1ccc(-c2nc3ccc(C)cn3c2NC(=O)c2ccc(Cl)cc2)cc1`, the displacement worked out at 4.5%. Next, `O=C1CSC(c2ccc([N+](=O)[O-])cc2)N1Cc1ccco1` (configuration not stated): -4.6%; `Cc1ccc(C(=O)NCCNc2ccc([N+](=O)[O-])cc2)cc1`: 15%; `CC(C)(C)C1=CC(N)=C(C(C)(C)C)C(=O)C1=O`: -7.3%. Next, `N/C(=N\OC(=O)c1ccc(I)cc1)c1cccnc1`: -4.9%. Next, `CC(=O)Nc1cc(-c2ccc(Cl)cc2)nn1-c1ccccc1`: -11%. `COc1cc(/C=N/Nc2nonc2N)cc(OC)c1OC`: the displacement was determined as 3.2%. As for `CC(C)CCNC(=O)c1cccc([N+](=O)[O-])c1`, the figure is 10.4%; as for `COc1cc(C(=O)Nc2ccccc2C(N)=O)cc(OC)c1OC`, 4.7%; as for `CCOC(=O)c1c(NC(=O)c2cccs2)sc(C(=O)Nc2ccc3c(c2)OCO3)c1C`, -2%. Next, `COc1ccc(C2CC(=O)C3=C(C2)Nc2ccccc2NC3c2cccnc2)cc1OC` (configuration not stated): -3.7%; `Cc1cc(NC(=O)c2ccc([N+](=O)[O-])cc2)ccc1-c1cc2ccccc2oc1=O`: -5.3%; `CCN(CC)CCSc1nc(O)c(-c2ccccc2)c(=O)[nH]1`: -18.6%. Next, `Cc1cccc(C(=O)Nc2ccccc2CO)c1`: 6.4%; `O=C(Nc1c(C(=O)N2CCCCCC2)cnn1-c1ccccc1)c1ccc(Br)cc1`: -9.1%. `O=C(Nc1ncc(Cc2ccc(F)cc2)s1)c1ccc(OCc2ccccc2)cc1`: the displacement is -15.6%. For the compound `CCOc1ccc(NC(=O)CN(c2ccc(OC)c(Cl)c2)S(C)(=O)=O)cc1`, the displacement amounted to 3.9%.

As for `COc1ccc(C(=O)Nc2ccc3c(c2)OCCO3)cc1OC`, the displacement is -0.4%.

As to `CC(C)c1nnc(NC(=O)CSc2nncn2C)s1`, the displacement amounted to 14.8%. Turning to `O=C(NNC(=O)c1ccc(-c2ccccc2)cc1)Nc1ccccc1`, the displacement came to 6.6%. As for `CCc1ccc(NC(=O)C(=O)NCCN2CCN(C(=O)c3cccc(Br)c3)CC2)cc1`, the figure is -15.5%; as for `O=C(N/N=C1\CCc2ccccc21)c1ccncc1`, 1.5%.

Turning to `COc1ccc(C(NC(=O)c2ccccc2)NC(=O)c2ccccc2)cc1OC`, the displacement was found to be 14.7%. Next, `CC(C)(C)c1cc(C(C)(C)C)cc(S(=O)(=O)CCc2ccncc2)c1`: 3%; `Cc1ccc(C(=O)CC(=O)c2ccc(C(C)(C)C)cc2)c(O)c1`: -19.8%; `CCC(C)OC(=O)C1=C(C)NC(=O)NC1c1ccccc1F` (configuration not stated): 3.9%. For `CCOC(=O)C(=CNc1ccccc1C(=O)O)C(=O)OCC`, the displacement worked out at 8.7%. Next, `Cc1[nH]c2ccccc2c1/C=C(/C#N)C(=O)Nc1cccc(Br)c1`: -17.5%; `O=C(O)c1ccc(/C=N/N2CCN(Cc3ccc(Cl)cc3)CC2)cc1`: 8.8%. Next, `Cc1ccc(C(=O)Nc2cccnc2)cc1S(=O)(=O)N1CCOCC1`: -23.4%; `COc1ccc(N2Cc3ccc(C(=O)N/N=C\c4ccc(Br)cc4)cc3C2)cc1`: 6.3%; `CCCCOc1ccc(C(=O)N2CCN(c3ccc(Cl)cc3)CC2)cc1`: -4.5%. As for `COCCOC(=O)C1=C(C)NC2=C(C(=O)CC(C)(C)C2)C1c1cccc(F)c1` (configuration not stated), the figure is 5.6%; as for `Cc1ccc(C2CC(C(F)(F)F)n3ncc(C(=O)Nc4ccc(C)c(C)c4)c3N2)cc1` (configuration not stated), 16.2%. On to `O=c1cnnc(N/N=C/c2ccc([N+](=O)[O-])cc2)[nH]1`, for which the displacement came out at 11.1%.

Regarding `COc1ccc(C(=O)N2CCN(Cc3cccc(F)c3)CC2)cc1OC`, the displacement is -9.8%. Next, `COC(=O)c1cc(Cl)c(NC(=O)c2c(-c3ccccc3Cl)noc2C)cc1OC`: 3.5%; `CCOC(=O)C1=C(O)/C(=C/c2ccccc2)SC1=Nc1cccc2ccccc12`: 14.5%.

On to `COc1cc(OC)cc(C(=O)N(C(=O)c2cc(OC)cc(OC)c2)c2ncccc2C)c1`, for which the displacement was -14.7%. Next, `N#C/C(=C/c1cccc(C(F)(F)F)c1)C(=O)Nc1ccc(Cl)cc1`: -0.9%; `COc1cc(/C=C2/C(=O)NC(=O)N(C)C2=O)cc(Cl)c1O`: -2.5%; `O=C1C(=C/C(Br)=C/c2ccccc2)SC(=S)N1Cc1ccccc1`: 4%.

In the case of `Cc1ccc(N2C(=O)CC(NCc3ccco3)C2=O)cc1` (configuration not stated), the displacement stood at 0.7%. `COc1cc(NC(=O)c2cc3n(n2)C(C(F)(F)F)CC(c2ccc(Br)cc2)N3)cc(OC)c1OC` (configuration not stated): the displacement is 12.4%. Next, `CCOC(=O)c1c(NC(=O)C2CC3CCC2C3)sc(C(C)=O)c1C` (configuration not stated): -9.9%; `O=C(/C=C/c1ccc([N+](=O)[O-])o1)c1ccc(-c2ccccc2)cc1`: -12.7%; `COc1ccc(C(=O)Nc2cccc(-c3nc4ccc(C)cc4o3)c2)cc1Br`: -15.8%. As for `c1ccc2c3c(ccc2c1)OCOc1ccc2ccccc2c1C3`, the figure is 8.4%; as for `CC1(C)CC(=O)C2=C(C1)OC(N)=C(C#N)C2Cc1ccccc1` (configuration not stated), -4.2%; as for `Cc1c(Cl)cccc1NC(=O)C(=O)NCc1ccc2c(c1)OCO2`, 2.8%. As for `Cc1nn(C(=O)C2CC2)c(C)c1Sc1ccccc1`, the figure is -9.8%; as for `Cc1ccc(C(=O)N2CCN(c3c(Cl)cccc3[N+](=O)[O-])CC2)o1`, -2.7%; as for `Cc1c(NC(=O)c2cn3c4c(c(N5CCN(C)CC5)c(F)cc4c2=O)OCN3C)c(=O)n(-c2ccccc2)n1C`, 7.1%. `COc1ccc(C(=O)c2ccc(OC)cc2OC)c(OC)c1`: the displacement stood at 5.6%.

As to `CC1(C)CC(NCc2cc(Br)cc(Br)c2O)CC(C)(C)N1`, the displacement was 13.8%.

Turning to `O=C(CSCc1cccc(Br)c1)N=Nc1c(O)[nH]c2ccccc12`, the displacement is -2.4%. Next, `COC(=O)C1=C(C)N(C)C(C)=C(C(=O)OC)C1c1cccs1`: 9.4%; `O=c1cc(C(F)(F)F)nc(Sc2c(-c3ccccc3)c3cc(Cl)ccc3[nH]c2=O)[nH]1`: -3.4%.

With `CCOC(=O)c1sc(NC(=O)COc2ccc(C)cc2Br)nc1C`, the displacement is 12.9%. As for `CCOc1ccc(/C=N/NC(=O)C(=O)NCc2cccnc2)cc1`, the figure is 5.4%. As for `C#CCOc1ccc(/C=C2\C(=O)NC(=O)N(c3cc(C)cc(C)c3)C2=O)cc1`, the figure is -94.3%. For `O=C(Oc1ccc(Cl)cc1)c1ccccc1`, the displacement was 14.6%. Take `C=CCN1C(=O)/C(=C\c2ccc(C=O)cc2)SC1=S`: the displacement came to 9.6%. As for `CCCOC(=O)c1c(NC(=O)c2c(-c3ccccc3)noc2C)sc2c1CCCCC2`, the figure is -7.2%; as for `O=C1c2ccccc2C(=O)N1/N=C/c1ccc(Cl)c([N+](=O)[O-])c1`, -2.3%. Next, `CCOC(=O)C1Cn2c(nc3c(c2=O)C(C)(C)Cc2ccccc2-3)S1` (configuration not stated): -5.9%; `CC(C)(C)N=CC(C=NC(C)(C)C)[N+](=O)[O-]` (configuration not stated): -12.2%.

On to `C#CC(C)(C)NC(=O)CN(c1cc(C)ccc1C)S(=O)(=O)c1ccccc1`, for which the displacement is 2.6%.

With `O=C(/C=C/c1ccc(-c2ccc(Cl)cc2Cl)o1)c1ccco1`, the displacement was found to be 3.4%. As for `COc1ccc(NC(=O)CN(c2cccc(C(F)(F)F)c2)S(C)(=O)=O)cc1`, the figure is -5.1%; as for `CC1(CC2C(CC(N)=O)C2(C)C)OCCO1` (configuration not stated), 13.4%; as for `O=C(Nc1cccc(F)c1)/C(=C/c1cccnc1)NC(=O)c1cccc(Br)c1`, 0.3%.

In the case of `CCOc1ccc(C(=O)Nc2ccc(Cl)c(-c3nc4ccccc4[nH]3)c2)cc1Cl`, the displacement was -13.1%.

In the case of `CC1CCN(c2ccc(NC(=O)c3ccc(Cl)cc3)cc2)CC1`, the displacement was found to be 5.2%.

As to `C=CCNC(=O)CN(c1ccc(OC)cc1)S(=O)(=O)c1ccc(C)cc1`, the displacement is 5.1%. Next, `Cc1c(N2C(=O)CS/C2=N\N=C\c2ccc(Cl)cc2)c(=O)n(-c2ccccc2)n1C`: -7.8%; `COc1ccc(/C=C2\SC(=S)N(CCCCCC(=O)N3CCN(C)CC3)C2=O)cc1`: 9.1%; `COc1cc(OC)cc(C(=O)Nc2ccc(I)cc2Cl)c1`: -0.6%. Next, `COc1cc(/C=C2\SC(=Nc3cccc(Cl)c3C)NC2=O)cc(OC)c1OC`: 43.6%; `Cc1cc(NC(=O)CN2CCOCC2)c2ccccc2n1`: -1.9%. Next, `Cc1cc(=O)[nH]c(SCC(=O)Nc2ccc(F)cc2)n1`: -8%; `CC(=O)Nc1ccccc1NC(=O)c1ccc(I)cc1`: 19.6%.
